# PubChem BioAssay AID1347073 (National Center for Advancing Translational Sciences (NCATS), 2019)
# The whole screen tested about 45,000 compounds, of which about 200 (0.44%) were called active. About 7% were inconclusive and are not listed. Calls follow the shape of the dose curve; as a rule, active = well fitted activation curve with a large enough effect; inconclusive = small, poorly fitted or top-dose-only effect; inactive = no such curve, though single readings can be large or run the other way. Some of the results follow.
# Test: qHTS of TDP-43 Inhibitors: NCGC Sytravon Library Screen; also: 0% is about no effect; nearly all actives have a fitted effect of over 55% in size
# Settings: yeast TDP-43 toxicity rescue, BacTiter-Glo growth, 24 h; series mostly up to 46.1 µM; growth rescue (activation): at the top concentration
# Summary of the method: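 TDP-43-expressing yeast, pregrown in raffinose, seeded at OD600 0.02 in galactose medium with compound for 24 hr at 30 deg C. Growth read by BacTiter-Glo luminescence, so rescue of toxicity appears as activation.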
row,Structure (SMILES),growth rescue (activation)
1,Cc1cc(SCC(=O)N/N=C/c2ccc(C(=O)O)cc2)nc2ccccc12,inactive: 17.1%
2,N#Cc1ccc(C(=O)N2CCCCC2c2cc(C(=O)NCc3ccccc3)no2)cc1 (centres undefined),inactive: 6.68%
3,COc1cc(C(=O)OC(C)C(=O)Nc2ccc3c(c2)OCCO3)cc(OC)c1OC (centres undefined),inactive: 37%
4,Cc1cccc(C(=O)NC(=S)NCc2cccnc2)c1,inactive: 7.24%
5,CC1CCN(Cc2c(C(=O)N/N=C/c3cc(Br)ccc3O)nnn2-c2nonc2N)CC1,inactive: 6.44%
6,N#Cc1ccc(N/N=C/c2cn(-c3ccccc3)nc2-c2ccccc2)c([N+](=O)[O-])c1,inactive: 9.43%
7,Cc1ccccc1NC(=O)CCS(=O)(=O)c1cccc2nonc12,inactive: -1.77%
8,CCC(Oc1cccc(C)c1)C(=O)Nc1ccccc1C(=O)N1CCOCC1 (centres undefined),inactive: 12.6%
9,NS(=O)(=O)c1cccc(NC(=O)CSc2ncc(C(F)(F)F)cc2Cl)c1,inactive: -11.5%
10,COc1ccc(-c2coc3c(C(=O)NCCN(C)C)cccc23)c(C)c1,inactive: 14.7%
11,CC(=O)c1c(-c2ccc(Cl)cc2)c2ccccc2[nH]c1=O,inactive: 6.06%
12,CCc1ccc(Nc2nc(-c3cc4cccc(OC)c4oc3=O)c(CC)s2)cc1,inactive: -15.6%
13,O=C(c1ccco1)N1CCCN(Cc2nc(Cc3ccccc3)no2)CC1,inactive: 0.261%
14,O=C(COc1ncnc2ccccc12)Nc1cc([N+](=O)[O-])ccc1F,inactive: 33.9%
15,CCOC(=O)C1CCN(C(=O)C2CCCN(S(=O)(=O)c3ccc(OCC)c(Cl)c3)C2)CC1 (centres undefined),inactive: -2.89%
16,NC(=O)[C@@H]1CCCN1Cc1nc(-c2ccccc2)no1,inactive: 17.4%
17,Cc1ccc(CNC(=O)C2CCCN(S(=O)(=O)c3cccc4nonc34)C2)cc1 (centres undefined),inactive: 4.17%
18,Cc1cccc(N(C)c2cc(-c3ccc(F)cc3)nc3ccnn23)c1,inactive: 10.6%
19,COc1cccc(NC(=O)CSc2nnnn2C2CCCCC2)c1,inactive: -8.54%
20,O=C(COC(=O)c1cc(=O)[nH]c2ccccc12)NC1CCCCC1,inactive: 3.34%
21,COc1cc(/C=N/NC(=O)c2ccc(O)cc2)ccc1OCC(=O)N1CC(C)OC(C)C1 (centres undefined),inactive: -2.81%
22,COCCNC(=O)c1c[nH]c2ccc(S(=O)(=O)N(C)c3ccc(C)c(C)c3)cc2c1=O,inactive: -2.42%
23,O=C(Nc1ccc2nccnc2c1)c1ccco1,inactive: -4.73%
24,Cc1cc(Cl)ccc1OCC(=O)N(Cc1sccc1C)C1CCS(=O)(=O)C1 (centres undefined),inactive: 4.75%
25,CCCOc1cccc(C(=O)N(Cc2sccc2C)C2CCS(=O)(=O)C2)c1 (centres undefined),inactive: 14.8%
26,CCN(CC)S(=O)(=O)c1ccc(N/N=C(\C)c2ccncc2)nc1,inactive: 7%
27,Nc1cc(Oc2ccc(F)cc2F)cc([N+](=O)[O-])c1,inactive: 13.3%

row,Structure (SMILES),growth rescue (activation)
1,COc1ccc(NC(=O)CNC(=O)c2nn(-c3ccc(OC)cc3OC)c(=O)c3ccccc23)c(OC)c1,inactive: 0.487%
2,O=C(Nc1ccc2oc(=O)ccc2c1)c1ccc2ccccc2c1,inactive: 11.2%
3,COc1cccc2c(SCC(=O)N/N=C/c3ccc(O)cc3O)cc(C)nc12,inactive: 6.56%
4,CS(=O)(=O)N(Cc1ccccc1)c1ccc(C(=O)N2CCOCC2)cc1,inactive: 22%
5,CN(c1ccc(OCC(=O)NC2CCC(O)CC2)cc1)S(=O)(=O)c1ccc(Cl)cc1 (centres undefined),inactive: 2.95%
6,Cc1ccc(C)c(N(CC(=O)NCc2ccccc2)C(=O)c2csnn2)c1,inactive: 4.31%
7,COCCNC(=O)C(c1c[nH]c2ccccc12)N(C(=O)c1snc(C(N)=O)c1N)c1cccc(OC)c1 (centres undefined),inactive: 2.57%
8,O=C(/C=C/c1cccs1)NC1CCCC1,inactive: 17.9%
9,O=C(NCCNC(=O)c1ccccc1F)c1ccccn1,inactive: -6.27%
10,O=C(COC(=O)c1cccnc1Cl)c1ccc(F)cc1,inactive: 3.52%
11,COc1ccccc1N1CCN(S(=O)(=O)c2ccc(-n3cnnn3)c(C)c2)CC1,inactive: 21.4%
12,COc1ccc(C(=O)/C=C/C(=O)N(CC(=O)NCCC(C)C)Cc2cccs2)c(O)c1,inactive: 1.27%
13,CCN(CC)CCOc1ccccc1C(C)=O,inactive: -14.4%
14,COc1cccc(/C=N/Nc2nc(C)cc(=O)[nH]2)c1OC,inactive: -13.8%
15,O=C(Nc1ccccc1)c1c2c(nc3ccccc13)CCCC2,inactive: -4.81%
16,COc1ccccc1N1CCN(C(=O)c2cc(C)on2)CC1,inactive: 7.58%
17,Cc1cc(=O)oc2cc(OCC(=O)OCC(=O)Nc3ccc4ccccc4c3)ccc12,inactive: 20.8%
18,O=C(NCCN1CCN(c2cccc(Cl)c2)CC1)c1ccc(CSc2nc3ccncc3[nH]2)cc1,inactive: 6.79%
19,Cc1ccc(C)c(-n2cc(CNCCCn3cccn3)c(-c3ccccc3)n2)c1,inactive: -6.54%
20,CSc1ncc(Cl)c(C(=O)Nc2ccc(S(=O)(=O)Nc3nccc(C)n3)cc2)n1,inactive: 6.86%
21,Cc1ccc(CCNC(=O)C2CCC(=O)N(Cc3cccc(F)c3)C2)cc1 (centres undefined),inactive: 19.9%
22,O=C(CSc1nncn1-c1cccnc1)Nc1ccccc1C(F)(F)F,inactive: -13.6%
23,Fc1cc(F)cc(NC(=S)N2CCN(c3ncccn3)CC2)c1,inactive: 16.4%
24,Cc1csc(NC(=O)c2c(O)c3c(n(CC(C)C)c2=O)CCCC3)n1,inactive: -14.3%
25,CN1CCC(NC(=O)c2ccncc2)CC1,inactive: -0.864%
26,Cc1ccc(C(=O)c2cc3ccccc3o2)cc1[N+](=O)[O-],inactive: -5.81%
27,Cc1noc2ncnc(N3CCN(c4ccc(F)cc4)CC3)c12,inactive: 10.1%
